Reference: PubChem BioAssay AID624417 (National Center for Advancing Translational Sciences (NCATS), 2012)
In all, about 410,000 compounds went through this assay and about 6,400 (1.6%) were called active. Inconclusive results, whose numbers are uncertain, are shown with a selection of clear calls. Calls follow the shape of the dose curve; as a rule, active = well fitted inhibition curve with a large enough effect; inconclusive = small, poorly fitted or top-dose-only effect; inactive = no such curve, though single readings can be large or run the other way. Potencies of inconclusive entries are left out as doubtful fits.

Target: Glucagon-like peptide 1 receptor (Homo sapiens) (UniProt P43220)
Assay: qHTS of GLP-1 Receptor Inverse Agonists (Inhibition Mode); also: nearly all actives have a fitted effect of over 55% in size
Settings: HEK293 GLP-1R CRE-luciferase, luminescence, 24 h, GLP-1R form is constitutively active; series mostly up to 38.3 µM
Procedure, shortened: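 GLP-1R inverse agonism mode: basal reporter luminescence in engineered HEK293 cells measured after one day of compound exposure at 37 deg C, with a 12 min room-temperature detection step.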
Potency is read from the fitted curve at half-maximal effect; tags tell the direction and shape of the fitted curve.

Chain of UniProt P43220 (P43220 whole entry, looked up): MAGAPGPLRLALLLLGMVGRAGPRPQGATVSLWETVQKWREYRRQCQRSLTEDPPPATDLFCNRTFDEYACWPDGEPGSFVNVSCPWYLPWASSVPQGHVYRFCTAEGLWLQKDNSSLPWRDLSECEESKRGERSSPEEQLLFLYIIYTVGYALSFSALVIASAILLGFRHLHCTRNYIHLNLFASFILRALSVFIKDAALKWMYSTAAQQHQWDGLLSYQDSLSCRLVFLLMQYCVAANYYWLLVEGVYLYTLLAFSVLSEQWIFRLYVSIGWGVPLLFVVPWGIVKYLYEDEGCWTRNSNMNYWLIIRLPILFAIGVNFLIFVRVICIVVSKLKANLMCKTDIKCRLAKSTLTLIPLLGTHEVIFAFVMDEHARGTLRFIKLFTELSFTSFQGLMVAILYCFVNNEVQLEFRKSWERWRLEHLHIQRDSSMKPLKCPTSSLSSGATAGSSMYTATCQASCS

With O=C(Nc1ccccc1)Nc1ccc2snnc2c1 as the molecule, how does the Potency read?
Its Potency is inconclusive [inhibitor, single point].

CCOc1ccc(NC(=O)C2(c3ccc(OC)c(OC)c3)CCCC2)cc1 was tested. Which Potency did it give?
The Potency was inconclusive [inhibitor, single point].

Which Potency does the source give for Cc1ccc(-c2onc3ccc(C(=O)/C=C/N(C)C)cc23)cc1 here?
The Potency was inconclusive [inhibitor, single point].

For Clc1ccc2c(c1)-c1c(cnc3cc(-c4ccccc4)nn13)CO2, which Potency is on record?
Its Potency is “inactive”.

With O=C(Nc1ccc(Br)cc1)C1CCCC1 as the molecule, how does the Potency read?
Its Potency is inconclusive [inhibitor, partial curve].

For CCCN1C(=O)N(c2cccc(C)c2)C(C)(O)CC1(C)C (stereo unspecified), which Potency is on record?
Its Potency is inconclusive [inhibitor, single point].

With CCOC(=O)c1cc2c(ccn2C)n1Cc1ccccc1Cl as the molecule, how does the Potency read?
Its Potency is inconclusive [inhibitor, single point].

How did the Potency turn out when Cc1ccc(NC(=O)CCC(=O)c2cccs2)nc1 was run?
The Potency was “inactive”.

COc1cccc(NC(=O)CN2C(=O)CSc3ccc(S(=O)(=O)N4CCCC4)cc32)c1 was tested. Which Potency did it give?
The Potency was “inactive”.

Which Potency does the source give for CCOC(=O)c1cc2cc(OC)ccc2n1C1CCN(CCc2ccccc2)CC1 here?
The Potency was inconclusive [inhibitor, single point].

For CCC(=O)NC(NC(=S)Nc1cccc2cccnc12)C(Cl)(Cl)Cl (stereo unspecified), which Potency is on record?
The Potency was inconclusive [inhibitor, single point].

For Cc1ccc2c(CC(=O)Nc3ccc(S(=O)(=O)N4CCCCC4C)cc3)coc2c1 (stereo unspecified), which Potency is on record?
Its Potency is active: 11.2 µM.

For CCC1(C)CC(c2nc(-c3ccc(OC)cc3)cs2)CCS1 (stereo unspecified), which Potency is on record?
The Potency was inconclusive [inhibitor, single point].

How did the Potency turn out when O=C(NNc1ncc(C(F)(F)F)cc1Cl)c1c(Cl)cccc1Cl was run?
The Potency was inconclusive [inhibitor, partial curve, poor fit].

How did the Potency turn out when CC1CCCN(C(=O)COC(=O)c2cc(-c3cccs3)nn2-c2ccccc2)C1 (stereo unspecified) was run?
Its Potency is inconclusive [inhibitor, partial curve, poor fit].

Which Potency does the source give for CCOc1ccccc1CNC(=O)c1ccc(N2Cc3ccccc3Oc3ncccc32)s1 here?
Its Potency is “inactive”.

With CC(C)(C)c1ccc(C(=O)Nc2ccccc2Cl)cc1 as the molecule, how does the Potency read?
Its Potency is inconclusive [inhibitor, single point].

With Cc1cccc(NC(=O)N2CCN(C(=O)c3nsc4ccccc34)CC2)c1C as the molecule, how does the Potency read?
Its Potency is “inactive”.

How did the Potency turn out when C[C@H](CO)N1C[C@H](C)[C@@H](CN(C)C(=O)Nc2ccc(C(F)(F)F)cc2)Oc2ccc(NC(=O)Cc3ccccc3)cc2C1=O was run?
The Potency was inconclusive [inhibitor, single point].

Which Potency does the source give for O=C(NCCS(=O)(=O)N1CCN(c2ccccc2F)CC1)c1cccc(Br)c1 here?
Its Potency is inconclusive [inhibitor, full curve].

With CN(CC(=O)Nc1ccccc1C(=O)NC1CC1)Cc1ccc(Cl)cc1 as the molecule, how does the Potency read?
Its Potency is inconclusive [inhibitor, single point].

For COC(=O)c1c(Oc2ccc(OC)cc2)nnc(-c2ccccc2)c1-c1ccccc1, which Potency is on record?
The Potency was inconclusive [inhibitor, partial curve, poor fit].

Which Potency does the source give for CCc1ccc2[nH]c(=O)c(CN(CCN(C)C)C(=S)NCc3ccco3)cc2c1 here?
Its Potency is inconclusive [inhibitor, partial curve, poor fit].

How did the Potency turn out when O=C(NCc1ccco1)c1cc(-c2cccs2)nc2ccccc12 was run?
The Potency was inconclusive [inhibitor, single point].

CCCCOc1ccc(C2=NC(c3cccs3)=Nc3ccc(CC)cc3N2)cc1 was tested. Which Potency did it give?
Its Potency is inconclusive [inhibitor, partial curve, poor fit].

For O=S(=O)(N/N=C/c1ccc2c(c1)OCCO2)c1ccccc1, which Potency is on record?
The Potency was “inactive”.

With CCCCCCCCN1C(=O)[C@H](CC(=O)N2CCN(C(=O)C3CC3)CC2)C[C@@]2(C(=O)OC)CCCCC=C12 as the molecule, how does the Potency read?
Its Potency is inconclusive [inhibitor, single point].

How did the Potency turn out when O=C(c1ccccc1)N1CCN(C(=O)c2cc3nc(-c4ccccc4)cc(C(F)(F)F)n3n2)CC1 was run?
The Potency was inconclusive [inhibitor, single point].

Which Potency does the source give for O=C(Oc1ccc[nH]c1=O)c1cc([N+](=O)[O-])cc([N+](=O)[O-])c1 here?
Its Potency is inconclusive [inhibitor, partial curve, poor fit].

With C=CCC1(C)C(=O)N(c2ccccc2)c2ccccc21 (stereo unspecified) as the molecule, how does the Potency read?
The Potency was inconclusive [inhibitor, partial curve, poor fit].

With CCN1CCN(c2ccc(NC(=O)c3ccc(OC)c(S(=O)(=O)N4CCCC4)c3)cc2)CC1 as the molecule, how does the Potency read?
Its Potency is “inactive”.

How did the Potency turn out when COc1cccc(OCc2cc(C(=O)N3CCN(c4ccccc4O)CC3)no2)c1 was run?
Its Potency is inconclusive [inhibitor, single point].

With COc1ccc(S(=O)(=O)Nc2cccc(S(=O)(=O)N3CCCCCC3)c2)cc1 as the molecule, how does the Potency read?
The Potency was inconclusive [inhibitor, single point].

How did the Potency turn out when C=CCOc1ccccc1CN1CCC(Oc2ccc(C(=O)N3CCCCC3)cc2)CC1 was run?
Its Potency is inconclusive [inhibitor, partial curve, poor fit].

With Cc1ccc(S(=O)(=O)N2CCCCC2)cc1C(=O)N1C(C)CCCC1C (stereo unspecified) as the molecule, how does the Potency read?
Its Potency is inconclusive [inhibitor, partial curve, poor fit].

For COc1ccccc1-c1cccc([C@@H]2C[C@H]3[C@H](CON3C)CN2Cc2ccccc2)c1, which Potency is on record?
The Potency was inconclusive [inhibitor, single point].

Which Potency does the source give for CC1CCN(C(=O)c2ccccc2SCC(=O)NCC2CCCCC2)CC1 here?
Its Potency is inconclusive [inhibitor, single point].

Which Potency does the source give for CC(=O)NS(=O)(=O)c1ccc(N=c2ssc3c2-c2cc(C)ccc2NC3(C)C)cc1 here?
Its Potency is inconclusive [inhibitor, partial curve].

How did the Potency turn out when CN(CCc1ccccc1)C(C(=O)Nc1ccc2c(c1)OCCO2)c1ccnc2ccccc12 (stereo unspecified) was run?
Its Potency is inconclusive [inhibitor, single point].

How did the Potency turn out when Cc1cc(N2CCOCC2)nc2ccc(NC(=S)N3CCN(Cc4ccccc4)CC3)cc12 was run?
Its Potency is inconclusive [inhibitor, partial curve, poor fit].

Which Potency does the source give for COc1ccccc1N1CCN(C(=O)c2sc3nc(-c4ccccc4)cn3c2C)CC1 here?
Its Potency is inconclusive [inhibitor, partial curve].

How did the Potency turn out when COc1cccc(CNc2ccc(F)c([N+](=O)[O-])c2)c1O was run?
Its Potency is inconclusive [inhibitor, single point].

For O=C(Nc1cccc(F)c1)/C(=C\c1cccnc1)NC(=O)c1ccco1, which Potency is on record?
The Potency was “inactive”.

Which Potency does the source give for CC1CC(C)CN(CC(O)COCCOc2ccc(Br)cc2)C1 (stereo unspecified) here?
The Potency was inconclusive [inhibitor, partial curve, poor fit].

For COC(=O)C1=C(Nc2ccc(OC)cc2)C=C(C)C(C(=O)OC)C1c1ccc(C)cc1 (stereo unspecified), which Potency is on record?
Its Potency is inconclusive [inhibitor, full curve, poor fit].

Which Potency does the source give for Cc1cccc(-c2nc(S(=O)(=O)c3ccc(Cl)cc3)c(N3CCCCCC3)o2)c1 here?
Its Potency is inconclusive [inhibitor, single point].

With O=C(CSc1nc(=O)n(CCN2CCOCC2)c2c1CCC2)Nc1ccc(OC(F)(F)F)cc1 as the molecule, how does the Potency read?
Its Potency is inconclusive [inhibitor, single point].

For CCCOc1cc(N(CC)CC)ccc1/C=C(/C#N)c1nc2ccc(C)cc2[nH]1, which Potency is on record?
The Potency was inconclusive [inhibitor, full curve, poor fit].

For Nc1nc(NC(=O)C(Cl)(Cl)Cl)nn1-c1ccccc1, which Potency is on record?
The Potency was “inactive”.

How did the Potency turn out when Cc1ccccc1C(=O)Nc1ccccc1C(=O)NCC(C)C was run?
The Potency was inconclusive [inhibitor, partial curve, poor fit].

Which Potency does the source give for OC(c1cccc(Cl)c1)c1ncc(-c2cccc(C(F)(F)F)c2)[nH]1 (stereo unspecified) here?
The Potency was inconclusive [inhibitor, single point].

Which Potency does the source give for CCN1CCN(c2cc(C)c3cc(NC(=S)N(C)Cc4ccccc4)ccc3n2)CC1 here?
Its Potency is inconclusive [inhibitor, full curve].

For Cc1ccc2nc(NC(=O)CCNS(=O)(=O)c3cccs3)sc2c1, which Potency is on record?
Its Potency is inconclusive [inhibitor, partial curve, poor fit].

For COc1ccc(NC(=O)Nc2ccc3c(c2)N(C)C(=O)CS3)cc1Cl, which Potency is on record?
Its Potency is inconclusive [inhibitor, full curve, poor fit].

How did the Potency turn out when Cc1ccc(C(=O)NCC(c2ccc3c(c2)OCO3)N2CCN(c3ccc(F)cc3)CC2)cc1 (stereo unspecified) was run?
The Potency was inconclusive [inhibitor, full curve, poor fit].

How did the Potency turn out when O=C(OCc1ccccc1)N1CCC2CC1c1c(Cl)cccc12 (stereo unspecified) was run?
The Potency was inconclusive [inhibitor, partial curve, poor fit].

For COCCSc1ccccc1C(=O)N1CCc2ccccc21, which Potency is on record?
The Potency was inconclusive [inhibitor, single point].

How did the Potency turn out when Cc1ccc2nc(NC(=O)C3CC(=O)N(Cc4ccco4)C3)sc2c1 (stereo unspecified) was run?
The Potency was “inactive”.

Which Potency does the source give for COc1ccc(C)cc1NC(=O)Cc1csc(NC(=O)Nc2ccccc2OC)n1 here?
The Potency was inconclusive [inhibitor, partial curve, poor fit].

How did the Potency turn out when Cc1cc(C(=O)N/N=C/c2cc([N+](=O)[O-])cc(C)c2O)n[nH]1 was run?
The Potency was inconclusive [inhibitor, single point].

Which Potency does the source give for CCCOc1ccc(NC(=O)CC2C(=O)N(c3ccccc3)C(=O)N2Cc2ccc(F)cc2)cc1 (stereo unspecified) here?
Its Potency is inconclusive [inhibitor, partial curve, poor fit].
